Out of some 7,900 compounds screened, about 400 (5.1%) showed an effect of 50% or more. The list shows a part of the results.

In the test the target is Parkinson's disease protein 7 (PARK7/DJ1) (human, UniProt Q99497). As to the kind of experiment: primary screen, percent inhibition; read as competition with a fluorescent probe by fluorescence polarization; higher = more effect of the substance. The conditions noted are these: 100 µM. An outline of the steps: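 Covalent fragments at 100 μM final were incubated 2 h with 0.2 μM PARK7, then 20 nM probe JYQ-107 added for a further 2 h. Fluorescence polarization read at 480/520 nm; relative FP loss versus reference controls gave remaining enzyme activity.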
Chain of Parkinson's disease protein 7 (PARK7/DJ1) (Q99497 whole entry, looked up, the tested form may be a part): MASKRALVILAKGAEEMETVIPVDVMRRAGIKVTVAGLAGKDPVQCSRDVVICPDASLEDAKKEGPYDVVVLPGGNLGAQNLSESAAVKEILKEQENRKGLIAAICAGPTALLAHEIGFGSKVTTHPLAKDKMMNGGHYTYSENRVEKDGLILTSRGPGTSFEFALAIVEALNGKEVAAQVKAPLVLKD
With `C=CC(=O)Nc1snc2ccccc12`, the Inhibition % was determined as 11%.

Take `CC(C)Cn1c(S)nc2ncccc2c1=O`: the Inhibition % stood at 6.75%.

Consider `C=CC(=O)N(Cc1ccccc1)C1COC(C)(C)C1` (centres unmarked), for which the Inhibition % was determined as 11.7%.

Take `COc1ccc(-c2cc(C#N)c(S)nc2C)cc1`: the Inhibition % is recorded as 2.42%.

Take `O=C(CCl)NCc1ccccc1OC(F)(F)F`: the Inhibition % is 21.2%.

Take `C=CC(=O)N1CCCC2(CC=CCC2)C1` (centres unmarked): the Inhibition % amounted to 4.98%.

`C=CC(=O)NNC(=O)c1ccccc1`: the Inhibition % is recorded as -1.66%.

Consider `C=CC(=O)N(CCO)c1ccc(C(=O)O)cc1`, for which the Inhibition % was -1.36%.

Regarding `CC1CCC(C)N(C(=O)c2ccc(B(O)O)cc2)C1` (centres unmarked), the Inhibition % is on record as 25.2%.

As to `C=CC(=O)Nc1cnc(C)nc1`, the Inhibition % stood at 9.56%.

`Cc1cc(B2OC(C)(C)C(C)(C)O2)ccc1N`: the Inhibition % is 8.63%.

Take `Cc1ccc(NC(=O)Cn2cnnc2C#N)cc1F`: the Inhibition % is given as 28.9%.

Regarding `Cc1cc(C=C(C#N)C(N)=O)c(C)n1C1CC1`, the Inhibition % was found to be 2.13%.

With `O=C(CCl)C1CCOCC1`, the Inhibition % turned out to be 99%.

With `C=CC(=O)NCC1CCCC(C(F)(F)F)C1` (centres unmarked), the Inhibition % was found to be 8.81%.

`CN1CCC(N(C)C(=O)C(C#N)=Cc2ccccc2)CC1.Cl`: the Inhibition % came out at 15.3%.

For `C=CC(=O)N1CCC(Cc2nc(C)cs2)C1` (centres unmarked), the Inhibition % came to 4.38%.

Turning to `CCc1ncc(NC(=O)c2cccnc2S)cn1`, the Inhibition % is recorded as 5.89%.

For the compound `O=c1oc(-c2ccc(F)cc2)nn1Cc1cccnc1`, the Inhibition % is given as 16%.

Turning to `CC1N=C(S)N(Cc2ccccc2)C1=O` (centres unmarked), the Inhibition % was found to be 2.79%.

As for `O=C(CCl)NNC(=O)CC1CCS(=O)(=O)C1` (centres unmarked), the Inhibition % is on record as -1.57%.

As for `N#Cc1ccc(OC(=O)N2CCOCC2)cc1`, the Inhibition % is 6.29%.

On to `C=CC(=O)N(C)CCn1c(=O)oc2ccccc21`, for which the Inhibition % was 16.4%.

On to `C[C@@H](CO)NS(=O)(=O)C=Cc1ccccc1`, for which the Inhibition % is on record as 8.92%.

For the compound `C=CC(=O)N1CC[C@@H]2OCC[C@@H]2C1` (racemic), the Inhibition % is reported as 14.8%.

In the case of `CC(C)Cn1cnc(C#N)n1`, the Inhibition % is recorded as 5.66%.

In the case of `C=CC(=O)NC1CCN(c2cccc(C)n2)CC1`, the Inhibition % was 7.9%.

Consider `N#Cc1ccc(OC(=O)N2CCCCC2)cc1`, for which the Inhibition % is on record as 9.24%.

As for `Cc1ccc(Oc2ccccc2NC(=O)CCl)cc1`, the Inhibition % worked out at 2.56%.

On to `O=C1NC(C2CC2)C12CCCO2` (centres unmarked), for which the Inhibition % is on record as -1.99%.

With `O=C1CN(C(=O)CCl)CCN1`, the Inhibition % came to 62.6%.

For the compound `Cc1csc(C(C#N)=Cc2cccc(O)c2)n1`, the Inhibition % stood at 16.2%.

On to `CN(Cc1cnn(C)c1)C(=O)CCl.Cl`, for which the Inhibition % was 20.6%.

On to `C=CC(=O)N1CC(c2ccccc2)C2COCCC21` (centres unmarked), for which the Inhibition % was found to be 9.83%.

Take `CCc1cc(S(=O)(=O)n2ccc(C)n2)ccc1OC`: the Inhibition % is on record as 1.65%.

These data come from article PMC9574860, “Chemical Toolkit for PARK7: Potent, Selective, and High-Throughput” (Journal of Medicinal Chemistry, 2022).
